In PMC4336329 (PLoS ONE, 2015):
Screen size: about 310,000 compounds; about 2,200 (0.71%) showed an effect of 50% or more. Effects have a minus sign here. The list shows a part of the results.

biological target: human ether-à-go-go-related gene (hERG) potassium channel (human, UniProt Q12809); test: primary screen, population patch clamp on CHO cells stably expressing hERG
Sequence (Q12809 whole entry, looked up): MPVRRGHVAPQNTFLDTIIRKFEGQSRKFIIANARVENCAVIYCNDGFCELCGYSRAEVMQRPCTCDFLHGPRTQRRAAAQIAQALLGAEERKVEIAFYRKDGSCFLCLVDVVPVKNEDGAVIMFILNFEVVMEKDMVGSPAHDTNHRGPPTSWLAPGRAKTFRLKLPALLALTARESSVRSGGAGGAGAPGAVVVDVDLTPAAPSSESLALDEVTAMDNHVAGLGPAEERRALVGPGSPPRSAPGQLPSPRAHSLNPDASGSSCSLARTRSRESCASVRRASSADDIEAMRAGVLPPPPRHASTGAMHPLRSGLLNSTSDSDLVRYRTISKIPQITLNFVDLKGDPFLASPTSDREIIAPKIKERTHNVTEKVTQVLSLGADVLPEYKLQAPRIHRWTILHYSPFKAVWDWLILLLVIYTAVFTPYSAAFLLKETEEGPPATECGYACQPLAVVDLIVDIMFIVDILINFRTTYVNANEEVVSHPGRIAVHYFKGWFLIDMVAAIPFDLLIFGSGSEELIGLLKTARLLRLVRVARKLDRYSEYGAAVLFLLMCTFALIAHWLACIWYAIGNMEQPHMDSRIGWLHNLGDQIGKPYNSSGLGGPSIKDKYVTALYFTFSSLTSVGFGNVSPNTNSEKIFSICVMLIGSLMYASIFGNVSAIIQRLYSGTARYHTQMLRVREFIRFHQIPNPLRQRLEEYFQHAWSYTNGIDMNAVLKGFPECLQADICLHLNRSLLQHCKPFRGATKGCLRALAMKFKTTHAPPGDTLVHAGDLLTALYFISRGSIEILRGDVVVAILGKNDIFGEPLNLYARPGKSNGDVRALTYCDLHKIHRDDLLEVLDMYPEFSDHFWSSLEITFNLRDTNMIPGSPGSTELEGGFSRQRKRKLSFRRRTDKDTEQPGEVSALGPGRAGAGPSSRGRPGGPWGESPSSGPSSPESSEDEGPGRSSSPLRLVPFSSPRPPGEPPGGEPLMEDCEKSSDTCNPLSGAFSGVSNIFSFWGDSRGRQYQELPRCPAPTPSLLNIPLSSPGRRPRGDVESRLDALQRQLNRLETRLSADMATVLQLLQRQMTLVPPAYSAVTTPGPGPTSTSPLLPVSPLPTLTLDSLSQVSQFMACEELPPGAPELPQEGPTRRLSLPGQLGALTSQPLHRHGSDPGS

| Structure (SMILES) | hERG current change (%, negative = inhibition) at 1uM [%] |
| --- | --- |
| CN(C)S(=O)(=O)N1CCN(CC(O)COc2ccc(-c3ccccc3)cc2)CC1 (centres unmarked) | 4.4 |
| O=C(NCC(=O)N(c1ccc(F)cc1)C(C(=O)NC1CCCCC1)c1ccncc1)c1ccco1 (centres unmarked) | 14.4 |
| O=C(N[C@@H](Cc1ccc(O)cc1)C(=O)O)C(c1ccccc1)c1ccccc1 | 12.5 |
| COc1cc(OC)nc(Oc2ccccc2C(=O)Oc2ccccc2Cl)n1 | 7.32 |
| O=C(Nc1nccs1)C1CCCN(S(=O)(=O)c2cccc3cccnc23)C1 (centres unmarked) | 5.43 |
| CC(C)C(c1nnnn1CCc1ccccc1)N1CCSCC1 (centres unmarked) | 13.3 |
| CCOc1cc(C)c(S(=O)(=O)Nc2ccc(Cl)cn2)cc1C | 14.1 |
| CCc1ccc(NS(=O)(=O)c2ccc3oc(=O)ccc3c2)cc1 | 6.73 |
| Cc1cc2cc(CN(Cc3ccco3)C(=O)NCc3ccccc3)c(=O)[nH]c2cc1C | 1.62 |
| CCCCn1c(=O)[nH]c(=O)c2c1nc(-c1ccccc1OC(F)F)n2C | 10 |
| CCn1c2ccccc2c2cc(CNCc3ccc(OC)cc3OC)ccc21.O=C(O)C(=O)O | -47.5 |
| CC(=O)Nc1sc(C)c(C)c1C(=O)OC1CCOC1=O (centres unmarked) | 2.28 |
| CC(C)(C)n1cnc2cc(NCc3cccs3)ccc21 | -0.668 |
| Cc1cccc(NC(=O)NNC(=O)CCc2ccccc2)c1 | 13.7 |
| O=C(O)C(=O)O.c1ccc(-c2cc(N3CCOCC3)nc3ccccc23)cc1 | -9.13 |
| C=CCNC(=S)/N=c1/ccccn1CCC | 16.4 |
| Cc1nc(SCC(=O)Nc2ccc3c(c2)OCCO3)c2oc3ccccc3c2n1 | 4.15 |
| COc1ccccc1C(c1nnnn1CCc1ccccc1)N1CCCCCC1 (centres unmarked) | -1 |
| COc1ccc(/C(O)=C/c2nc3ccc(C(=O)NCCc4cccc(C)c4)cc3[nH]c2=O)cc1OC | 10.4 |
| COC(=O)c1ccc2c(c1)NC(=O)C(N(CC(C)C)CC(C)C)S2 (centres unmarked) | 11.2 |
| COc1ccc(CCn2c(=N)c(C(=O)NCC3CCCO3)cc3c(=O)n4ccccc4nc32)cc1OC (centres unmarked) | -79.9 |
| Oc1ccc(-c2cccc(-c3ccc(O)cc3)n2)cc1 | 10.6 |
| O=c1cnnc(N/N=C/c2ccc3c(c2)OCO3)[nH]1 | 11.6 |

| Structure (SMILES) | hERG current change (%, negative = inhibition) at 1uM [%] |
| --- | --- |
| CCOc1cc(N2CCOCC2)c(OCC)cc1NC(=O)CSc1ncn[nH]1 | 9.98 |
| Cc1cc(N2CCN(C)CC2)ccc1NC(=O)c1cccc(S(=O)(=O)N2CCc3ccccc3C2)c1 | 13.3 |
| COc1cc2c(cc1OC)C(C)N(C(=O)C1COc3ccccc3O1)CC2 (centres unmarked) | -5.23 |
| COc1ccccc1OC(=O)CN1C(=O)c2ccccc2C1=O | -0.292 |
| CCC(C)[C@H](NC(=O)N1CCC(C)CC1)C(=O)O (some centres unmarked) | -1.19 |
| O=C(COc1ccc(Cl)c(Cl)c1)NC1CCS(=O)(=O)C1 (centres unmarked) | 13.9 |
| O=S(=O)(c1ccccc1)c1cnc2ccccc2c1 | 13.2 |
| O=C(N/N=C/c1ccc(O)cc1)NC12CC3CC(CC(C3)C1)C2 | -10.3 |
| O=C1NC2c3ccccc3C(=O)N2c2c1cnn2-c1ccccc1 (centres unmarked) | 0.288 |
| O=C(CCN1C(=O)/C(=C\c2cccs2)SC1=S)Nc1ccccn1 | 10.2 |
| O=c1c2ccccc2nc2c3ccccc3ncn12 | 16 |
| CC(C)CC(=O)Nc1ccc(S(=O)(=O)N2CCCC2)cc1 | 19.4 |
| COC(=O)C1C2C=CC3(CN(C(C)c4ccc(OC)cc4)C(=O)C13)O2 (centres unmarked) | 13.1 |
| CCc1ccc(NC(=O)CCn2c(=O)c3cccn3c3ccccc32)cc1 | 5.43 |
| COc1ccccc1CN1CC(C(=O)NCC2CCCO2)CC1=O (centres unmarked) | 12.4 |
| Cc1ccc(C(O)P(=O)(OCc2ccccc2)c2ccc(N(C)C)cc2)cc1 (centres unmarked) | 11.9 |
| COC(=O)C1(C)NC(c2ccco2)C2C(=O)N(c3ccc(F)cc3)C(=O)C21 (centres unmarked) | 9.56 |
| COc1ccc(N=C(C)c2c(O)[nH]c(=O)[nH]c2=O)cc1 | 13.9 |
| O=C(CCl)Nc1cccc(S(=O)(=O)NC2=NCCC2)c1 | 12.1 |
| Oc1ccc2ccccc2c1CN1CCOCC1 | 10.3 |
| O=C(NCc1ccc(F)cc1Cl)C1CC(=O)N(C2CCCCCCC2)C1 (centres unmarked) | 13.7 |
| C(=N\N=C\c1cccs1)/c1cccs1 | 9.5 |
| CN(CCOC(=O)CN1C(=O)c2ccccc2C1=O)C1=NS(=O)(=O)c2ccccc21 | 8.18 |

| Structure (SMILES) | hERG current change (%, negative = inhibition) at 1uM [%] |
| --- | --- |
| CCOc1ccc(CN(C)C(=O)CN2C(=O)NC3(CCCc4ccccc43)C2=O)cc1 (centres unmarked) | 9.67 |
| CN(CC(=O)Nc1ccc(Cl)c(Cl)c1)C1CCCCC1.O=C(O)C(=O)O | 13 |
| CN(C(=O)c1cn2ccccc2n1)c1c(N)n(Cc2ccccc2)c(=O)[nH]c1=O | 16.2 |
| Cc1ccc2cc(CCNS(=O)(=O)c3ccc(F)cc3)c(=O)[nH]c2c1 | 1.31 |
| CC(=O)Nc1ccc(NC(=O)c2cc(=O)c3cc(C)c(C)cc3o2)cc1 | 6.98 |
| COc1cccc(-c2cc(C(=O)N3CCOCC3)no2)c1 | 15.7 |
| COc1ccc(CNc2nc(NCc3ccc(OC)cc3)n(C(=O)c3ccncc3)n2)cc1 | 21.3 |
| O=C(CN1C(=O)NC2(CCCC2)C1=O)Nc1cc(S(=O)(=O)N2CCOCC2)ccc1OCC(F)(F)F | 13 |
| CC(NC(=O)c1ccccc1)c1nnc(SCC(=O)NC2CCCC2)n1C (centres unmarked) | 13.9 |
| Cc1ccc(NC(=O)CNc2cccc(S(=O)(=O)N3CCCCC3)c2)cc1F | 11.9 |
| CC(CC(=O)N1CCN(c2ccccc2)CC1)c1ccccc1 (centres unmarked) | 14 |
| Cc1ccc(OCCN2CCN(C(=O)CCC(=O)Nc3nnc(C)s3)CC2)cc1 | 3.99 |
| CSc1cccc(NC(=O)C2CCCN(c3ncnc4c3nc3n4CCCCC3)C2)c1 (centres unmarked) | 4.71 |
| CCCS(=O)(=O)c1nc(S(=O)(=O)c2ccc(C)cc2)c(NCc2ccco2)s1 | 6.82 |
| Cc1ccc(-c2nc(CS(=O)(=O)CC(=O)N3CCN(C)CC3)c(C)o2)cc1 | 10.3 |
| C[C@H]1[C@H](NC(=O)C(=NOC(C)(C)C(=O)O)c2csc(N)n2)C(=O)N1S(=O)(=O)O | 11.5 |
| CC(C)C1CCC(C(=O)N[C@H](Cc2ccccc2)C(=O)O)CC1 (some centres unmarked) | 3.48 |
| COc1cccc(-c2c(C#N)c(N)nc3c2c(C)nn3-c2ccccc2)c1O | 1.84 |
| Cc1cccc(C)c1OCC(=O)NNC(=O)Nc1ccc(Cl)cc1 | 0.0482 |
| CNC(=S)NNC(=O)c1cccc(N(C)C)c1 | 2.36 |
| COc1ccc(Cl)cc1NC(=O)C(C)Sc1nncn1C (centres unmarked) | 8.46 |
| CCOC(=O)n1c(=O)oc2cc(S(=O)(=O)N3CCOCC3)ccc21 | -12.9 |
| Cc1ccc(S(=O)(=O)N2CCCC2C(=O)NCc2ccco2)cc1 (centres unmarked) | 8.74 |

| Structure (SMILES) | hERG current change (%, negative = inhibition) at 1uM [%] |
| --- | --- |
| Cc1nc(NC(=O)/C=C/c2ccccc2)sc1C(=O)NCCO | 12.2 |
| CC(NC(=O)c1ccc(CS(C)(=O)=O)cc1)C1CC2CCC1C2 (centres unmarked) | 4.05 |
| Cn1cc(CCC(=O)NCCCc2ccccc2)c2ccccc21 | 13.2 |
| O=C(NCCN1CCOCC1)/C(=C\c1ccccc1F)NC(=O)c1ccccc1 | 0.467 |
| COc1cccc(NC(=O)CSc2c3c(nc4ccccc24)CCCC3)c1 | 6.57 |
| CCC(=O)OCCNc1nc(-c2ccccc2)nc2ccccc12.Cl | -2.96 |
| COc1cccc(S(=O)(=O)Nc2cccc(C(=O)N3CCCC3)c2)c1 | 6.5 |
| CC(C)NC(=O)c1cc2n(n1)C(C(F)(F)F)CC(c1ccco1)N2 (centres unmarked) | 10.6 |
| CSc1ccc(S(=O)(=O)NCC(=O)OCC(=O)N(C)CC(=O)Nc2ccccc2Cl)cc1[N+](=O)[O-] | 11.1 |
| CCOC(=O)C1CCN(C(=O)N(C)C)CC1 | 16.5 |
| C=C(C)CNC(=S)NNC(=O)c1ccncc1 | 10.6 |
| Cc1cc(NC(=S)NC(=O)CC(C)C)ccc1Br | 7.82 |
| CCCOc1c(Br)cc(C(=O)NCC)cc1OC | -7.47 |
| OC(COc1ccccc1)CSc1ncn[nH]1 (centres unmarked) | 2.81 |
| COc1ccc(/C=C/C(=O)O)cc1S(=O)(=O)NCc1ccccc1 | 6.84 |
| CC(=O)Nc1ccc(C(=O)COC(=O)CN2C(=O)NC3(CCCCC3C)C2=O)cc1 (centres unmarked) | 12.7 |
| CSc1nnc(-c2cc[n+](C)cc2)n1CCO.[I-] | 6.95 |
| Cc1c(Cl)cccc1NC(=O)COc1ccc(S(=O)(=O)N2CCOCC2)cc1 | 3.86 |
| COC(=O)C1(O)CC(C(C)C)=NN1C(=O)c1ccc(Cl)cc1 (centres unmarked) | 7.83 |
| O=S(=O)(Nc1cccc(-c2cn3cccnc3n2)c1)c1ccccc1 | 6.1 |
